Test results reported in PubChem BioAssay AID504832 (National Center for Advancing Translational Sciences (NCATS), 2011).
Out of some 310,000 compounds screened, about 18,000 (5.8%) were called active. Inconclusive means that the source gave no clear call. Such entries were picked first, then a sample of the others. Calls follow the shape of the dose curve; as a rule, active = well fitted inhibition curve with a large enough effect; inconclusive = small, poorly fitted or top-dose-only effect, or another doubt; inactive = no such curve, though single readings can be large or run the other way. Potencies of inconclusive entries are left out as doubtful fits.

Assay: Primary qHTS for delayed death inhibitors of the malarial parasite plastid, 48 hour incubation
Conditions: P. falciparum luciferase growth in erythrocytes; series mostly up to 28.7 µM
Procedure, shortened: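 Luciferase-expressing parasites in RBCs, 2% Hct / 0.1% parasitemia final; RPMI 1640 + 0.5% Albumax; 37 C, 5% CO2, one generation; luminescence read-out, lower signal = inhibition.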
Potency is read from the fitted curve at half-maximal effect; tags tell the direction and shape of the fitted curve.

SMILES	Potency
CC(C)Cn1c(N)c(C(=O)COC(=O)c2ccccc2F)c(=O)n(C)c1=O	inactive
COCCNC(=O)C(=O)N/N=C/c1cccs1	inactive
O=C(Nc1cc(S(=O)(=O)N2CCOCC2)ccc1N1CCCCC1)c1ccccc1	inconclusive [inhibitor, partial curve]
Cc1ccc([C@@H]2CC=C(C(=O)O)[C@H](c3ccc(Cl)cc3)N2S(=O)(=O)c2ccc(C)cc2)cc1	inconclusive [inhibitor, single point]
CCCN(S(=O)(=O)c1ccccc1F)S(=O)(=O)c1ccccc1Br	inactive
COc1ccc(/C=N/NC(=O)c2cc(C)oc2C)cc1OCc1ccccc1	inactive
CCc1nccn1CCC(=O)NC1CC(C)(C)Cc2c1cnn2-c1ccc(C)cc1 (stereo unspecified)	inconclusive [inhibitor, single point]
Cc1nn(CCOc2ccccc2)c(=O)n1-c1c(F)cccc1F	inactive
COc1ccccc1NC(=S)NCCc1ccc(Cl)cc1	inconclusive [inhibitor, single point]
Cc1ccccc1CCNC(=O)Cn1ccc2cc(S(=O)(=O)N3CCCC3)ccc21	inconclusive [inhibitor, single point]
Fc1ccc(C2CC(c3cccs3)=NN2c2ccccc2)cc1 (stereo unspecified)	inconclusive [inhibitor, single point]
Cn1cc(Cl)c(C(=O)N/N=C/c2ccc(OS(=O)(=O)c3ccccc3)cc2)n1	inconclusive [inhibitor, single point]
CCOc1ccccc1OCC(=O)Nc1cc(S(=O)(=O)N2CCCCC2)ccc1N1CCN(CC)CC1	active: 10.4 µM
CCN(CC(=O)NCc1cccs1)C(=O)c1ccccc1Cl	inactive
CCN(CC(=O)NC(c1ccccc1)c1ccccc1)Cc1nc2ccccc2c(=O)[nH]1	active: 11.7 µM
CCOc1ccccc1C(=O)NCCCn1ccnc1	inactive
C=C(C)CSc1cc(C)c(C#N)c2nc3ccccc3n12	inconclusive [inhibitor, partial curve, poor fit]
CC(=O)Nc1ccc(S(=O)(=O)N2CCN(c3ccc([N+](=O)[O-])c(NCCN4CCOCC4)c3)CC2)cc1	inconclusive [inhibitor, single point]
CCOc1ccc(C(=O)N[C@H](C(=O)Nc2cccc(S(=O)(=O)N3CCCCC3)c2)C(C)C)cc1	inconclusive [inhibitor, partial curve]
CCCCN(c1ccccc1)S(=O)(=O)c1ccc2c(c1)CCN2C(=O)CCC(=O)O	inconclusive [inhibitor, partial curve]
CC(C)(O)C(=O)NNC(=S)Nc1cccc(C(F)(F)F)c1	inactive
Cc1ccc(C(CNC(=O)C(=O)Nc2ccc3c(c2)OCCO3)N2CCN(C)CC2)cc1 (stereo unspecified)	active: 7.38 µM
Fc1ccccc1/C=N/n1c(C2CCCCC2)n[nH]c1=S	inactive

SMILES	Potency
O=C1CSC(=S)N1/N=C/c1ccc(O)c([N+](=O)[O-])c1	inconclusive [inhibitor, partial curve]
Cc1nc2ccc(C(=O)N/N=C/c3ccc(O)cc3)cc2[nH]1	inactive
Cc1cccc(C(C)C)c1NC(=O)c1ccc(CN(c2ccccc2)S(=O)(=O)c2ccccc2)cc1	inactive
COCCNC(=O)CSc1cc(-c2ccccc2)c2ccc(OC)cc2n1	inconclusive [inhibitor, single point]
Cc1ccc(NC(=O)C(c2ccc(Cl)cc2)N2CCCCC2)cc1 (stereo unspecified)	inconclusive [inhibitor, single point]
Cc1cc(Cl)ccc1OCC(=O)OCC(=O)Nc1cccnc1Cl	inactive
Cc1csc(NC(=O)CSC2=NS(=O)(=O)c3ccccc3N2)n1	inactive
CC(NC(=O)c1cc(COc2ccc3ncccc3c2)on1)c1ccc(F)cc1 (stereo unspecified)	inconclusive [inhibitor, single point]
COc1ccc2c(c1)cc1c(=O)n(CC(=O)NCCCN3CCOCC3)nc(C)n12	inactive
Cc1ccc(-n2c(C)cc(/C=N/NC(=O)c3ccncc3)c2C)cc1	inconclusive [inhibitor, single point]
Cc1nnc(NC(=O)c2sc3ccccc3c2Cl)s1	inactive
COc1cc(OC)cc(C(=O)NC2CCCN(Cc3ccc(Cl)cc3)C2)c1 (stereo unspecified)	inconclusive [inhibitor, partial curve, poor fit]
COc1ccccc1CN(C)C(C)C(=O)Nc1cccc(C(C)=O)c1 (stereo unspecified)	inconclusive [inhibitor, single point]
Cc1ccc(O)c(NC(=O)CSc2n[nH]c(-c3ccccc3)n2)c1	inactive
COc1ccc(OC)c(C(Nc2ccccc2)P(=O)(OC(C)C)OC(C)C)c1 (stereo unspecified)	inconclusive [inhibitor, single point]
CCCCN(CC)C(=O)/C=C/c1cccc([N+](=O)[O-])c1	inconclusive [inhibitor, single point]
O=C(CSc1ccc(-c2ccccn2)nn1)N1CCCCC1	inactive
Cc1ccc(S(=O)(=O)NCCC(=O)N2CCN(C/C=C/c3ccccc3)CC2)cc1	inconclusive [inhibitor, single point]
Clc1ccccc1Cc1noc(CN2CCCCC2CCc2ccccn2)n1 (stereo unspecified)	inconclusive [inhibitor, partial curve, poor fit]
CC(=O)Nc1ncnc2c1c(-c1ccc(Cl)cc1)nn2C(C)(C)C	inconclusive [inhibitor, single point]
Cc1ccc(N=C2NC(=O)/C(=C/C=C/c3ccco3)S2)cc1	inconclusive [inhibitor, single point]
COc1cccc(CNC(=O)CN(C)S(=O)(=O)c2ccc3c(c2)n(C)c(=O)c(=O)n3C)c1	inconclusive [inhibitor, single point]
CN1c2ccccc2C2(C)CCCC3=Cc4cccc([N+](=O)[O-])c4OC312 (stereo unspecified)	inconclusive [inhibitor, single point]
